In PubChem BioAssay AID1345083 (National Center for Advancing Translational Sciences (NCATS), 2018):
In all, about 94,000 compounds went through this assay and about 6,200 (6.6%) were called active. This list was built around the results that the source calls inconclusive (neither active nor inactive); the mix of calls is not that of the screen. The call rests on the fitted dose curve; in most records, active means well fitted inhibition curve with a large enough effect; inconclusive means small, poorly fitted or top-dose-only effect; inactive means flat fitted curve, though single readings scatter. Potencies beside an inconclusive call are fits to weak or partial responses and may not hold up.

Assay: Cytotoxic Profiling in HEK 293 Cell Line of Diverse Libraries Using Quantitative High-Throughput Screening; further: nearly all actives have a fitted effect of over 60% in size
Details: HEK 293 viability, ATP luminescence (CellTiter-Glo), 48-72 h; series mostly up to 115 µM
Procedure, shortened: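 Cytotoxicity was scored by loss of ATP-coupled luminescence (CellTiter-Glo) in HEK 293 cells. Compound treatment ran 48 or 72 hr at 37 degree Celsius, 5% CO2, 95% humidity.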
Potency means the concentration at half of the fitted maximal effect; tags describe the fitted curve by direction and shape.

Compound | Potency
COc1ccccc1C(=O)NCC1COc2ncncc2C(=O)N1Cc1ccccc1 (stereo unspecified) | inactive
Cc1cc(C(=O)Nc2ccc(C(O)[C@H]3COCC(=O)N3)cc2)n(C)n1 (stereo partly specified) | inactive
COc1ccccc1Nc1ccnc(N2CCC(NC(=O)Cc3cccc(Cl)c3)CC2)n1 | inconclusive: 44.7 µM [inhibitor, partial curve, poor fit]
Cc1ccc(-c2ccc3nnc(CNC(=O)c4cccc(N(C)C)c4)n3n2)cc1 | inconclusive: 79.4 µM [inhibitor, partial curve, poor fit]
Cc1cc(-c2nc(C3CCOCC3)nn2Cc2ccccc2C)c(C)o1 | inconclusive: 56.2 µM [inhibitor, partial curve, poor fit]
Cc1cn2nc(C(=O)N3CCOCC3)cc2c(N(C)Cc2ccccc2)n1 | inconclusive: 89.1 µM [inhibitor, single point]
CCOC(=O)C1(Cc2ccccc2)CCCN(C(=O)c2ccccc2SC)C1 (stereo unspecified) | active: 44.7 µM
COc1cncc(Nc2ncc(-c3c(C)noc3C)c3c2OCC3)c1 | inactive
O=[S+]([O-])(c1ccc(C(F)(F)F)cc1)N1CCC2(CC1)CC(c1cccc(C(F)(F)F)c1)=NO2 | inconclusive: 89.1 µM [inhibitor, single point]
CNS(=O)(=O)c1ccc(CN(CCOC)Cc2ccc(C)cc2)cc1 | inconclusive: 79.4 µM [inhibitor, partial curve, poor fit]
COC(=O)C1=C(C)N=C2SC=C(CC(=O)N3CCCC3)N2C1c1cccc(OC)c1 (stereo unspecified) | inconclusive: 35.5 µM [inhibitor, partial curve, poor fit]
CCN(CC)c1ccc(NC(=O)CCn2ccn3nc4c(c3c2=O)CCCC4)c(C)c1 | inconclusive: 50.1 µM [inhibitor, partial curve, poor fit]
CCc1nc2c(c(-c3ccc(O)cc3)n1)CN(C(=O)C1CCCC1)CC2 | active: 39.8 µM
CCOC(=O)c1ccc(NC(=O)N2Cc3[nH]cnc3C[C@H]2c2nc(-c3ccc(Cl)cc3)no2)cc1 | inconclusive: 50.1 µM [inhibitor, partial curve, poor fit]
c1ccc(CN(Cc2ccoc2)[C@@H]2C[C@@H]3CO[C@H](c4ccccc4)C[C@@H]3C2)cc1 | inconclusive: 25.1 µM [inhibitor, full curve]
COCc1nn(CC(=O)N2CCc3sccc3C2)c(=O)n1-c1ccccc1 | inactive
CN1CCN(CCNC(=O)c2ccc(-c3ccc(N4CCCCCC4)nc3)cc2)CC1 | active: 25.1 µM
CN(Cc1csc(-c2ccccc2)n1)c1cc(C2CC(O)C2)nc(N)n1 (stereo unspecified) | active: 25.1 µM
O=C(Cc1ccccc1)Nc1cc(-c2ccccn2)nn1-c1ccccc1 | inconclusive: 79.4 µM [inhibitor, partial curve, poor fit]
Cc1ccc(-n2nc(-c3c(C)nc4scc(CC(=O)NCc5ccco5)n4c3=O)cc2C)cc1 | inconclusive: 50.1 µM [inhibitor, partial curve, poor fit]
O=C(CCCc1ccc(F)cc1)N[C@@H]1CCOC[C@H]1Oc1ccccn1 | inconclusive: 31.6 µM [inhibitor, single point]

Compound | Potency
CN(CCc1noc(C2CC2)n1)C(=O)[C@H]1CNC[C@@H](C(=O)N2CCCC2)C1 | inactive
COC(=O)[C@@H]1Cc2ncn(Cc3ccc(Cl)cc3)c2CN1S(=O)(=O)c1cccc2c(N(C)C)cccc12 | inconclusive: 79.4 µM [inhibitor, partial curve, poor fit]
COc1cccc(C(=O)N2CCCCCC2c2nnc(-c3ccccc3)o2)c1 (stereo unspecified) | inconclusive: 39.8 µM [inhibitor, partial curve]
COc1ccc2cc1Nc1ccc(cc1)C[C@H](NCC1CC1)C(=O)N(C)[C@@H](C(=O)NCc1ccccc1)C2 | inconclusive: 56.2 µM [inhibitor, partial curve, poor fit]
CN(C(=O)c1cc(C2CC2)[nH]n1)C1CCc2nn(CC3CC3)c(=O)n2CC1 (stereo unspecified) | inactive
CCOc1ccc2c(n1)CCN(C(=O)c1cc(OC)cc(OC)c1)C2 | inconclusive: 100 µM [inhibitor, single point]
Cc1noc(C)c1CC(=O)N1CCCCCC1c1nnc(-c2ccccc2)o1 (stereo unspecified) | inactive
COc1ccc(-c2cn(C)c(=O)n3cc(COc4ccnn4C)nc23)c(C)c1 | inconclusive: 31.6 µM [inhibitor, full curve, poor fit]
O=C(Nc1ccccc1F)N1CCC(N2C(=O)C3(CCCCC3)C2c2ccncc2)CC1 (stereo unspecified) | inconclusive: 89.1 µM [inhibitor, partial curve, poor fit]
CN1CCC(NC(=O)C(C)(C)Oc2nn(CCOc3ccccc3)c3ccccc23)CC1 | active: 89.1 µM
CN(C)c1ccc(C(=O)N2CCN(c3cc(-c4ccc(Cl)cc4)[nH]n3)CC2)cc1 | inconclusive: 39.8 µM [inhibitor, partial curve, poor fit]
COc1ccc(OCC(=O)N2CCC(Cc3nc(-c4cnccn4)no3)CC2)cc1 | inactive
CCSCCNC(=O)c1c(C)noc1-c1ccc(C(C)(C)C)cc1 | inconclusive: 31.6 µM [inhibitor, full curve, poor fit]
CCc1[nH]c2c(CNC(=O)c3cnc(C)nc3)cc(C)cc2c1C | inactive
CC1(C)[C@H](Cc2cc(COc3ccccc3)on2)C[C@@H]1NC(=O)c1cccs1 | inconclusive: 20 µM [inhibitor, full curve, poor fit]
O=C(Cc1cccc(F)c1)NC1CCN(c2cc(-c3cccs3)[nH]n2)C1 (stereo unspecified) | inconclusive: 89.1 µM [inhibitor, single point]
COCC(=O)N[C@H]1CC[C@]2(C)CC[C@@H]3[C@H](OC(=O)[C@H]3C)[C@H]2[C@@H]1C | inactive
COc1ccccc1Nc1cnc2ccc(-c3ccc(OC)c(OC)c3)nn12 | active: 11.2 µM
COCC(=O)N1CCCC(c2cc(N3CCOCC3)nc(C)n2)C1 (stereo unspecified) | inactive
N#Cc1cccc(C(=O)N2CCCCCCNC(=O)[C@@H]3CCCC[C@@H]32)c1 | inconclusive: 89.1 µM [inhibitor, single point]
